This note sets out measurements from article PMC7819943, “Rice protein-binding microarrays: a tool to detect cis-acting elements near promoter regions in rice”.

The list shows a part of the results.

The assay concerns the target T1, OsWOX13 (Oryza sativa, UniProt Q5QMM3 1-267).
T1 sequence: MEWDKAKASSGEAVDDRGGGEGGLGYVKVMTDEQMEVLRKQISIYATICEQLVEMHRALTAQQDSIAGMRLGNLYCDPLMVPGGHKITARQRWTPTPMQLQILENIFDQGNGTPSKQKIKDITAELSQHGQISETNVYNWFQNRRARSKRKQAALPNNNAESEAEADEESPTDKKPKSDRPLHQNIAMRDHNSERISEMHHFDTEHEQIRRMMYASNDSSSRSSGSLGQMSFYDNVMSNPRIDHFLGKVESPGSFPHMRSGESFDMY
The experiment in a line: protein-binding microarray (RPBM); PBS, 2% BSA, 51.3 ng/ul salmon testes DNA, 50 uM zinc acetate, 200 nM TF, 25 C, 1 h; high values mean tight binding. The conditions noted are these: protein: recombinant; tags: N-terminal polyhistidine and DsRed monomer fusion (pET32a); label: CyDye5-dUTP incorporated in the synthesized complementary strand; 3' TTTTT single-stranded linker to array surface; dsDNA, one strand shown. An outline of the steps:
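The binding signal is fluorescence intensity per feature, in arbitrary units, read on an Axon 4000B scanner. Polyhistidine- and DsRed-tagged transcription factors (N-terminal fusions) from E. coli BL21-CodonPlus were purified on Ni–NTA and applied at 200 nM for 1 h at 25 °C to a double-stranded, BSA-blocked custom Agilent array in buffer with 50 µM zinc acetate.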
For “AAATGATTTTAACATGTGGGATAAGCAAAGGGAATGATTTCGGAGTCACCTAGTGCAG”, the binding signal was 6840 fluorescence intensity (a.u.).

For “TGATAGTGTCAATCACCGGCCGGCGAAATCTCTTTGCCGGCGGAGTCACCTAGTGCAG”, the binding signal was 17900 fluorescence intensity (a.u.). With “CTTTGATTATGCCAAGAAGAACTCCGATTATATACTACTCCGGAGTCACCTAGTGCAG” the figure was 15500 fluorescence intensity (a.u.); with “CAGAAATTTGTAATTCATAAATAAGAAATCGTACCAGCTACGGAGTCACCTAGTGCAG”, 9880 fluorescence intensity (a.u.); with “AATAATAAACCGAATACTGATTTGGTTCCGGAACCCAAACCGGAGTCACCTAGTGCAG”, 3160 fluorescence intensity (a.u.).

In the case of “AATCAATCTGGTGGTCCAGTTAAAGGTTTACAGGCAGGTGCGGAGTCACCTAGTGCAG”, the binding signal is 5790 fluorescence intensity (a.u.). On to “GTTTGGATTTGATTGGAGATTCGTGCGCGTGTAGAATAGACGGAGTCACCTAGTGCAG”, for which the binding signal was 25100 fluorescence intensity (a.u.). With “TTCATGCGTAATTGCAATCTTATGCTGGTAAGATGCATGACGGAGTCACCTAGTGCAG” the figure was 23300 fluorescence intensity (a.u.); with “TGGTGTAGGGTTATGATTGGATGAGTAGTGGAGGTAGGTACGGAGTCACCTAGTGCAG”, 8550 fluorescence intensity (a.u.).

For “AGAGATTGTACTGACGAAAATCAATCGTAATCAGAACAGCCGGAGTCACCTAGTGCAG”, the binding signal was 11000 fluorescence intensity (a.u.). With “TACACGAGATTGGAGGCACTAGGCCTCAGTACATGGCACGCGGAGTCACCTAGTGCAG” the figure was 3870 fluorescence intensity (a.u.); with “GTCAAATCATAAATTTCGAGCCCCTGGCCTAGCTGCAGCGCGGAGTCACCTAGTGCAG”, 6270 fluorescence intensity (a.u.). With “CCCCTAATTCTATCATCACCAGTGTATTCCCTTCATCAAACGGAGTCACCTAGTGCAG” the figure was 5420 fluorescence intensity (a.u.). On to “ATAATTAAACATCAGAGTTGATTAGTATTTATCATTAAACCGGAGTCACCTAGTGCAG”, for which the binding signal was 24100 fluorescence intensity (a.u.). With “CCCCAAGAGTCAAAATCCAAATCAATTAAGATAAGGGTTCCGGAGTCACCTAGTGCAG” the figure was 3580 fluorescence intensity (a.u.); with “ACAAAATGAATTGGAAATCAGAAATTAGGACTTCAGCTTTCGGAGTCACCTAGTGCAG”, 9050 fluorescence intensity (a.u.). With “TCCATAATTAGCAGCTGATTACTGTAGTATTACTGTAGCACGGAGTCACCTAGTGCAG” the figure was 60800 fluorescence intensity (a.u.); with “ATATTTATAATTAGTGTCCAAAGATCTGATGTGATAGGGACGGAGTCACCTAGTGCAG”, 6990 fluorescence intensity (a.u.).

In the case of “ACAAATAAATCTGGATTGGATTGTGGAAATGATAAGAACACGGAGTCACCTAGTGCAG”, the binding signal was 5800 fluorescence intensity (a.u.). With “GTTTGACATGTACACTGTAATTGATTTTCGTCTCTGTTCGCGGAGTCACCTAGTGCAG” the figure was 26400 fluorescence intensity (a.u.); with “TCTTGCTGGTACCAATTAACATGGGTATGTTTAATTTGCTCGGAGTCACCTAGTGCAG”, 3470 fluorescence intensity (a.u.); with “AAATTAGCTAATACTTAATCAATCATGTGCTAATGGACAGCGGAGTCACCTAGTGCAG”, 13100 fluorescence intensity (a.u.). With “AAAGGTTGATAGACTCGCGAACGGAAATAAAGGGGTTGTTCGGAGTCACCTAGTGCAG” the figure was 11900 fluorescence intensity (a.u.).
